Measured values reported in patent US20140235520A1, “Perfume Compositions” (Givaudan Nederland Services B.V., priority 2005, published 2014).
At least one read-out could not be matched to a standard name with certainty. Some entries repeat one wording, which the source may state once for all of them. Some of these results come from one statement about several compounds together. At least one structure is not confirmed: it was looked up by name or label, or the drawing left a doubt.

tested on: Escherichia coli ATCC 10536; test: Standardised biofilm detachment assay (96 well microtitre plate, crystal violet OD540) in quarter strength GPC base Formula A; format: cell-based; details: ingredient as 1 of 4 equal-weight ingredients (other 3 Group B), perfume 0.25% w/w in quarter strength GPC base Formula A, 20 min 21° C.; flavour ingredients classed in toothpaste base

Compound	Group (PDV class: active / non-active / antagonist to biofilm detachment)
CC(=O)OC(CC(C)C)CC(C)C [3-methyl-1-(2-methylpropyl)butyl acetate]	B (Group B materials that are non-active to biofilm detachment are defined as those having a PDV (as defined above) of less than 9 and greater than 0)
COCC(C)O (stereo not drawn) [1-(methyloxy)propan-2-ol]	B (Group B materials that are non-active to biofilm detachment are defined as those having a PDV (as defined above) of less than 9 and greater than 0)
CC/C(=C/CC1CC=C(C)C1(C)C)CO (stereo not drawn) [(2Z)-2-ethyl-4-(2,2,3-trimethylcyclopent-3-en-1-yl)but-2-en-1-ol]	A (Group A materials that assist biofilm detachment are defined as those having a PDV (as defined above) of at least 9)
CC/C=C\CCOC(=O)c1ccccc1O [(3Z)-hex-3-enyl 2-hydroxybenzoate]	A (Group A materials that assist biofilm detachment are defined as those having a PDV (as defined above) of at least 9)
CC(=O)/C(C)=C/C1C(C)=CCCC1(C)C (stereo not drawn) [(3E)-3-methyl-4-(2,6,6-trimethylcyclohex-2-en-1-yl)but-3-en-2-one]	A (Group A materials that assist biofilm detachment are defined as those having a PDV (as defined above) of at least 9)
C=CCOC(=O)COCC(C)CC (stereo not drawn) [prop-2-enyl [(2-methylbutyl)oxy]acetate]	C (Group C materials that are antagonistic to biofilm detachment are defined as those having a PDV (as defined above) of less than or equal to 0)
C=CC(C)(O)CC/C=C(\C)CCC=C(C)C (stereo not drawn) [(6E)-3,7,11-trimethyldodeca-1,6,10-trien-3-ol]	A (Group A materials that assist biofilm detachment are defined as those having a PDV (as defined above) of at least 9)
CCCCCCCC1CCCC1=O (stereo not drawn) [2-heptylcyclopentanone]	A (Group A materials that assist biofilm detachment are defined as those having a PDV (as defined above) of at least 9)
CCCCC/C(C=O)=C/c1ccccc1 [amyl cinnamic aldehyde DQ, amyl cinnamic aldehyde]	A (Group A materials that assist biofilm detachment are defined as those having a PDV (as defined above) of at least 9)
CC(C)CC1CC(C)(O)CCO1 (stereo not drawn) [2-(2-methylpropyl)-4-hydroxy-4-methyl-tetrahydropyran]	A (Group A materials that assist biofilm detachment are defined as those having a PDV (as defined above) of at least 9)
C=CCCC(=O)C1=CCCC(C)(C)C1 [1-(5,5-dimethylcyclohex-1-en-1-yl)pent-4-en-1-one]	B (Group B materials that are non-active to biofilm detachment are defined as those having a PDV (as defined above) of less than 9 and greater than 0)
CC(=O)C1CCC(C)=CCCC(C)=CCC=C1C (stereo not drawn) [2,6,10-trimethyl-1-acetyl-cyclododeca-2,5,9-triene]	B (Group B materials that are non-active to biofilm detachment are defined as those having a PDV (as defined above) of less than 9 and greater than 0)
CCC1COC(C)(OC(C)=O)O1 (stereo not drawn) [ethyl-2-methyl-1,3-dioxolan-2-yl acetate]	B (Group B materials that are non-active to biofilm detachment are defined as those having a PDV (as defined above) of less than 9 and greater than 0)
CC(C)=CCCC(C)(C)O [2,6-dimethylhept-5-en-2-ol]	C (Group C materials that are antagonistic to biofilm detachment are defined as those having a PDV (as defined above) of less than or equal to 0)
CC/C=C\CCO [(3Z)-hex-3-en-1-ol]	B (Group B materials that are non-active to biofilm detachment are defined as those having a PDV (as defined above) of less than 9 and greater than 0)
CCCCCCCCCC(C)CC#N (stereo not drawn) [3-methyldodecanenitrile]	A (Group A materials that assist biofilm detachment are defined as those having a PDV (as defined above) of at least 9)
CC1(C)C2CCC1(C)C(C1CCC(O)CC1)C2 (stereo not drawn) [4-(1,7,7-trimethylbicyclo[2.2.1]hept-2-yl)cyclohexanol]	A (Group A materials that assist biofilm detachment are defined as those having a PDV (as defined above) of at least 9)
CCCCCC1C(=O)CCC1CC(=O)OC (stereo not drawn) [methyl (3-oxo-2-pentylcyclopentyl)acetate]	C (Group C materials that are antagonistic to biofilm detachment are defined as those having a PDV (as defined above) of less than or equal to 0)
Cc1cccc(CC(C)(C)CO)c1 [2,2-dimethyl-3-(3-methylphenyl)propan-1-ol]	B (Group B materials that are non-active to biofilm detachment are defined as those having a PDV (as defined above) of less than 9 and greater than 0)
CC1OC(C)C2Cc3ccccc3C2O1 (stereo not drawn) [2,4-dimethyl-4,4a,5,9b-tetrahydroindeno[1,2-{d}][1,3]dioxine]	A (Group A materials that assist biofilm detachment are defined as those having a PDV (as defined above) of at least 9)

Compound	Group (PDV class: active / non-active / antagonist to biofilm detachment)
CC(O)COCC(C)O (stereo not drawn) [1-[(2-hydroxypropyl)oxy]propan-2-ol]	C (Group C materials that are antagonistic to biofilm detachment are defined as those having a PDV (as defined above) of less than or equal to 0)
CC(CCO)CCc1ccccc1 (stereo not drawn) [3-methyl-5-phenylpentan-1-ol]	C (Group C materials that are antagonistic to biofilm detachment are defined as those having a PDV (as defined above) of less than or equal to 0)
CCCCOC(=O)CC(CC(=O)OCCCC)(OC(C)=O)C(=O)OCCCC [tributyl-2-(acetyloxy)propane-1,2,3-tricarboxylate]	A (Group A materials that assist biofilm detachment are defined as those having a PDV (as defined above) of at least 9)
C=CC(C)(O)CC/C=C(/C)CC (stereo not drawn) [(6Z)-3,7-dimethylnona-1,6-dien-3-ol]	C (Group C materials that are antagonistic to biofilm detachment are defined as those having a PDV (as defined above) of less than or equal to 0)
CCCCC/C=C\CCC=O [(4Z)-dec-4-enal]	B (Group B materials that are non-active to biofilm detachment are defined as those having a PDV (as defined above) of less than 9 and greater than 0)
O=C(OCc1ccccc1)c1ccccc1O [phenylmethyl-2-hydroxybenzoate]	B (Group B materials that are non-active to biofilm detachment are defined as those having a PDV (as defined above) of less than 9 and greater than 0)
CCCC(=O)OCCC(C)C [Iso Amyl Butyrate DQ, Iso Amyl Butyrate]	B (Group B materials that are non-active to biofilm detachment are defined as those having a PDV (as defined above) of less than 9 and greater than 0)
CCCCCCCCCC=O [Aldehyde C10 DQ, Aldehyde C10]	B (Group B materials that are non-active to biofilm detachment are defined as those having a PDV (as defined above) of less than 9 and greater than 0)
C/C=C/c1ccc(OC)cc1 [Anethole synthetic]	A (Group A materials that assist biofilm detachment are defined as those having a PDV (as defined above) of at least 9)
CC1=CCC(C(C)(C)O)CC1 (stereo not drawn) [2-(4-methylcyclohex-3-en-1-yl)propan-2-ol]	C (Group C materials that are antagonistic to biofilm detachment are defined as those having a PDV (as defined above) of less than or equal to 0)
CC(C)=CCCC(C)CCCC(C)C=O (stereo not drawn) [2,6,10-trimethylundec-9-enal]	A (Group A materials that assist biofilm detachment are defined as those having a PDV (as defined above) of at least 9)
C=C(C)CC(C)OC(=O)C(C)C (stereo not drawn) [1,3-dimethylbut-3-enyl 2-methylpropanoate]	C (Group C materials that are antagonistic to biofilm detachment are defined as those having a PDV (as defined above) of less than or equal to 0)
CCCCC/C=C/CCC=O [(4E)-dec-4-enal]	B (Group B materials that are non-active to biofilm detachment are defined as those having a PDV (as defined above) of less than 9 and greater than 0)
CC1COCc2cc3c(cc21)C(C)(C)C(C)C3(C)C (stereo not drawn) [4,6,6,7,8,8-hexamethyl-1,3,4,6,7,8-hexahydroindeno[5,6-{c}]pyran]	A (Group A materials that assist biofilm detachment are defined as those having a PDV (as defined above) of at least 9)
CC(=O)OC1(C)CCC23CC1C(C)(C)C2CCC3C (stereo not drawn) [2,6,6,8-tetramethyltricyclo [5.3.1.0̂{1,5}]undec-8-yl acetate]	A (Group A materials that assist biofilm detachment are defined as those having a PDV (as defined above) of at least 9)
C=CCc1ccc(O)c(OC)c1 [eugenol rectified, eugenol]	A (Group A materials that assist biofilm detachment are defined as those having a PDV (as defined above) of at least 9)
C/C=C/c1cc(C(C)C)ccc1C [1-methyl-4-(1-methylethyl)-2-[(1E)-prop-1-enyl]benzene]	A (Group A materials that assist biofilm detachment are defined as those having a PDV (as defined above) of at least 9)
CCCCCCCCCCO [decanol DQ, decanol]	A (Group A materials that assist biofilm detachment are defined as those having a PDV (as defined above) of at least 9)
CC(C)O [iso propyl alcohol DQ, iso propyl alcohol]	A (Group A materials that assist biofilm detachment are defined as those having a PDV (as defined above) of at least 9)
